From PubChem BioAssay AID1645882 (National Center for Advancing Translational Sciences (NCATS), 2021)
Out of some 16,000 compounds screened, about 120 (0.75%) were called active. Roughly 4% stayed inconclusive and do not appear here. Calls follow the shape of the dose curve; as a rule, active = well fitted inhibition curve with a large enough effect; inconclusive = small, poorly fitted or top-dose-only effect; inactive = no such curve, though single readings can be large or run the other way. Some of the results follow.

The molecules below were run against Rap guanine nucleotide exchange factor 3 (Homo sapiens) (UniProt O95398) (assay: Validation qHTS for antagonist of cAMP-regulated guanine nucleotide exchange factor 3 (EPAC1)). Details: EPAC1 Rap1B-BODIPY-GDP exchange, fluorescence; series mostly up to 150 µM; activity change, negative = inhibition: at the top concentration.
How it was run: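 EPAC1 (100 nM) mixed with 250 nM RAP1B-BODIPY-GDP and 50 uM GDP; compounds in concentration series, 5 min at room temperature. Fluorescence (ex 480/em 540 nm) read every 5 min for 30 min; normalized to ATA control and DMSO.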
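Also: plate controls were DMSO for no effect and ATA control for full effect; nearly all actives have a fitted effect of over 75% in size.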

UniProt O95398, sequence (O95398 whole entry, looked up): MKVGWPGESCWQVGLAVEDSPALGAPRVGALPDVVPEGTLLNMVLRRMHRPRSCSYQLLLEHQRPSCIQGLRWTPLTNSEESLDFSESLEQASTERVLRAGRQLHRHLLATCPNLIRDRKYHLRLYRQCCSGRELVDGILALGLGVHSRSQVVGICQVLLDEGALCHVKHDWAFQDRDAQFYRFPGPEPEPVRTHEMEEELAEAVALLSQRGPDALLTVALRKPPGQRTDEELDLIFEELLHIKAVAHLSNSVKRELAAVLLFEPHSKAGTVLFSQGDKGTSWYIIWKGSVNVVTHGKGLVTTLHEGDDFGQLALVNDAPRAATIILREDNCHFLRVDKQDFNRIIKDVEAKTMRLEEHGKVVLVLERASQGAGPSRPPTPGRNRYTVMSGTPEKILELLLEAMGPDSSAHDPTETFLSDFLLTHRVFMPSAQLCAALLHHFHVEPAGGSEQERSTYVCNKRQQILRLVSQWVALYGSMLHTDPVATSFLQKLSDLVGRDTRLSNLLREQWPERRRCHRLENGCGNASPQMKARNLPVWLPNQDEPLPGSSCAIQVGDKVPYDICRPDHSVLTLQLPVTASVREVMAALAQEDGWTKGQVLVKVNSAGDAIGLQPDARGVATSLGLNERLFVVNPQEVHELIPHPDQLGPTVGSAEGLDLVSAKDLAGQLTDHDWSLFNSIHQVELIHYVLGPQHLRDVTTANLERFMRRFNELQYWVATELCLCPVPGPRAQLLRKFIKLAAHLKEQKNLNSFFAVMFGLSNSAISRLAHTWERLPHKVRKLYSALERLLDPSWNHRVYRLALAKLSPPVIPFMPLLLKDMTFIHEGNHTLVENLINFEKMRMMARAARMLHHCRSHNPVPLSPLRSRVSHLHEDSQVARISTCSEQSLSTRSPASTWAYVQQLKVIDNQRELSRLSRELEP

Activity change, negative = inhibition, inactive:
CC(=O)OC[C@H]1O[C@@H](n2ncc(=O)[nH]c2=O)[C@H](OC(C)=O)[C@@H]1OC(C)=O 4.2%, CCCOC(=O)c1cc(O)c(O)c(O)c1 -15.6%, CN1CCCc2cc(/C=C/c3ccnc4ccccc34)ccc21 40%, c1nc(NCCN2CCOCC2)c2cc(-c3ccc4c(c3)OCO4)ccc2n1 -10.8%, O=C(c1csnn1)N1CCC2(CCCN(C(c3ccccc3)c3ccccc3)C2)CC1 -12.6%, CC(=O)O[C@]1(C(C)=O)CC[C@H]2[C@@H]3C=C(Cl)C4=CC(=O)[C@@H]5C[C@@H]5[C@]4(C)[C@H]3CC[C@@]21C, COc1ccc(C(=O)NCc2nc(-c3ccccc3NC(=O)c3cc(C)oc3C)oc2C)cc1F 3.87%, O=C(O)C1CCCN(CCC=C(c2ccccc2)c2ccccc2)C1 (stereo not drawn), CCCCCCCCCCCCCCCC[n+]1ccc(/C=C/c2c[nH]c3ccccc23)cc1 88.9%, CC1(C)OC2CC3C4CC(F)C5=CC(=O)C=CC5(C)C4C(O)CC3(C)[C@]2(C(=O)CO)O1 (stereo partly drawn) -9%, N=C(N)c1ccc(/C=C/c2ccc(C(=N)N)cc2O)cc1 14.3%, C[C@H]1CN(C2CCCCC2)C(=O)[C@@H]1CC(=O)NCc1ccccc1 8.55%, O=S1(=O)CCOCCCN1Cc1cccc(F)c1 8.06%, C[C@@H]1C(=O)CC2C(C)(C)CCC[C@]2(C)[C@@]1(O)CCc1ccoc1 (stereo partly drawn) -5.75%, CC(C)N1CCN(C(=O)c2cnn(-c3nccc(-c4ccc5c(c4)OCO5)n3)c2-c2ccco2)CC1 7.16%, CSc1ccccc1C(=O)NCC1Cc2cccc(-c3ncccc3C)c2O1 (stereo not drawn) 0.746%, Cc1cc(-n2c(=O)[nH]c(=O)n(C)c2=O)ccc1Oc1ccc(S(=O)(=O)C(F)(F)F)cc1 29.3%, CCCc1c2oc(C(=O)O)cc(=O)c2cc2c(=O)cc(C(=O)O)n(CC)c12 27.3%, COc1cc2c(cc1OC)[C@@H](Cc1cc(OC)c(OC)c(OC)c1)[N+](C)(CCCOC(=O)CC/C=C/CCC(=O)OCCC[N+]1(C)CCc3cc(OC)c(OC)cc3[C@H]1Cc1cc(OC)c(OC)c(OC)c1)CC2 (stereo partly drawn), Oc1cc(O)c2c(c1)OC(c1cc(O)c(O)c(O)c1)C(O)C2 (stereo not drawn) -8.05%, CC(=O)OCC(=O)[C@@]12OC(C)(C)OC1CC1C3CC(F)C4=CC(=O)C=C[C@@]4(C)[C@@]3(F)C(O)C[C@]12C (stereo partly drawn) 12.9%, COC(=O)/C=C/c1cc(F)ccc1S(=O)(=O)NC(C)(C)C -7.45%, Cc1cc(C)nc(-c2cccc3c2OC(CNC(=O)c2ccc(Cn4nc(C)cc4C)cc2)C3)n1 (stereo not drawn) 21.2%, O=C1CCC[C@@H]2C[C@@]3(C[C@@H]4CCN1[C@H]24)Nc1ccccc1NC3=NCc1ccccc1 14%, COC(=O)C[C@H]1c2cc(F)ccc2S(=O)(=O)N1c1ccc(N(C)C)cc1 8.66%, OCC1CCCN(c2nc3cc4c(cc3cc2CNCc2cccc(C(F)(F)F)c2)OCO4)C1 (stereo not drawn) 9.65%, O=C1c2ccccc2C(=O)C1c1ccc(Cl)cc1 7.48%, CC(=O)Oc1ccc(C(=C2CCCCC2)c2ccc(OC(C)=O)cc2)cc1 17.7%, COc1ccc2cc([C@H](C)CO)ccc2c1 12%, O=C(c1cc(C(F)(F)F)cc(C(F)(F)F)c1)N1CCC[C@@]2(CCN(Cc3ccncc3)C2)C1 -7.95%, O=C(O)c1ccccn1 26.9%, CN(Cc1ccco1)c1ccnc(-c2cccnc2)n1 17.4%, Cc1ncc(CO)c(CO)c1O 21%, Nc1nnnn1-c1ccccc1 17.2%, COc1ccccc1C1CN(CCNC(=O)c2sccc2Cl)Cc2ccccc2O1 (stereo not drawn) 5.98%, CN1CCc2cc(Cl)c(O)cc2[C@@H](c2ccccc2)C1, COc1ccccc1CNc1ncncc1-c1ccc2c(c1)OCO2 1.36%, Nc1ccc(N2C(=O)c3ccccc3C2=O)c(Cl)c1 -7.69% [at 75.8 µM], CCNc1ncc2nc(-c3ccccc3)c(=O)n(C)c2n1 17.3%, Cn1c(=O)c(-c2ccc(Cl)cc2)nc2cnc(OCc3ccccc3)nc21 17.8%, Cc1nc(-c2ccc(Cl)cc2)oc1COC(C)(C)C(=O)O 16.6%, COCCn1c(=O)c(-c2ccc(OC)cc2)nc2cnc(Oc3cccc(Cl)c3)nc21 0.216%, CS(=O)(=O)N1CCC[C@@]2(CCN(C(=O)Nc3ccccc3)C2)C1 0.658%, CC1(C)[C@H](C(=O)O)N2C(=O)C[C@H]2S1(=O)=O 10.6%, NC1C(O)OC(CO)[C@@H](O)[C@@H]1O[C@H]1O[C@@H](C(=O)O)C(O)C(O)C1O (stereo partly drawn) 5.68%, C=CS(=O)(=O)O -4.33%, NC(=O)[C@@H]1CCCN1C(=O)CCN1Cc2ccccc2OC(c2ccccc2F)C1 (stereo partly drawn) 8.63%, O=C(c1cn(C2CCCN(Cc3cc(Cl)ccc3O)C2)nn1)N1CCCCC1 (stereo not drawn) -7.71%, O=c1cnc2cnc(Oc3cccc(Cl)c3)nc2n1Cc1ccc(F)cc1 8.02%, COc1cc2c3cc1Oc1cc(ccc1O)C[C@@H]1c4c(cc(OC)c(O)c4Oc4ccc(cc4)C[C@@H]3N(C)CC2)CC[N+]1(C)C -8.45%, COC(=O)CC1C(C)(C)C(O)C2CC3=C4C=C(OC)OC(c5ccoc5)[C@]4(C)CCC3[C@@]1(C)C2=O (stereo partly drawn) -21.5%, CC(C)CN1CCC(=O)N(CCN=[N+]=[N-])CC1 -0.957%, CC(C)c1c(O)c(-c2cc3c(c(C(C)C)c2O)CCC2C(C)(C)CCC[C@@]32C)cc2c1CCC1C(C)(C)CCC[C@@]21C (stereo partly drawn) -2.5%, CC(=O)Nc1ccccc1-c1nc(CNC(=O)c2ccc(F)c(F)c2)c(C)o1 5.89%, Nc1ccc([N+](=O)[O-])cc1O -28% [at 320 µM], COc1ncc2nc(-c3ccccc3)c(=O)n(CCc3ccccc3)c2n1 6.89%, COc1cc(C(=O)NCCCCCC(=O)O)cc(OC)c1OC -9.65%, Cc1noc(C)c1-c1cc(N(C)Cc2ccco2)ncn1 18.6%, Cc1ccnn1CC(=O)N1CCOc2c(cc(-c3ncc(C(F)(F)F)cc3Cl)cc2OCC2CCCO2)C1 (stereo not drawn) 1.92%, COCCNc1nc(-c2cccc(OC)c2)nc2ccccc12 0.815%, COc1ccc(-c2nc3cnc(OC)nc3n(Cc3cccc(OC)c3)c2=O)cc1 9.99%, CC1=C(C(=O)O)N2C(=O)[C@@H](NC(=O)[C@H](N)C3=CCC=CC3)[C@H]2SC1 -3.08%, N[C@@H](CCC(=O)N[C@@H](CS)C(=O)NCC(=O)O)C(=O)O 17%
